{"source": "PubChem BioAssay AID463173", "about": "(ICCB-Longwood Screening Facility, Harvard Medical School, 2010)", "note": "About 4,300 (8.3%) of roughly 52,000 compounds were called active. No stated cut-off is given here; in the data, active means survival mostly below about 52% (no sharp cut-off); inactive means mostly above about 56%. Some of the results follow."}
{"system": "DeltatarO mutant", "test": "S. aureus survival, RN4220 and DeltatarO strains – OD600, teichoic acid synthesis inhibitors, primary screen (AID 463173)", "conditions": "S. aureus RN4220 wild type/DeltatarO growth, OD600, 18 h, hits give low values, screened at 18.75 µg/mL (by protocol)"}
{"smiles": "COc1ccc(CNC(=O)c2cc3c(=O)[nH]c4ccccc4c3s2)cc1", "survival": "inactive: 86%"}
{"smiles": "Cc1cccc(N2CCN(C(=O)NCc3noc4ccccc34)CC2)c1C", "survival": "inactive: 53%"}
{"smiles": "CCOC(=O)c1ccccc1NC(=O)CCOc1ccccc1", "survival": "active: 22%"}
{"smiles": "COCCc1nn2c(=O)cc(COC(=O)c3ccc(OC)c(OC)c3)nc2s1", "survival": "inactive: 108%"}
{"smiles": "Cc1ccc(C)n1-c1c(C(=O)NCCC(C)C)sc2ncccc12", "survival": "inactive: 92%"}
{"smiles": "CCOC(=O)C1CCN(C(=O)Cn2c(=O)cc(C)c3c(C)nn(C)c32)CC1", "survival": "inactive: 69%"}
{"smiles": "Cc1oc2ncn(CC(C)C)c(=O)c2c1C(=O)N1CCN(c2cccc(C(F)(F)F)c2)CC1", "survival": "inactive: 85%"}
{"smiles": "CCc1nn(-c2ccccc2)c2nc(-c3cccc(OC)c3)c3cc(OC)c(OC)cc3c12", "survival": "inactive: 75%"}
{"smiles": "Cc1cccc(-n2ncc3c(Nc4ccc(Oc5ccc(Cl)cc5)cc4)ncnc32)c1", "survival": "inactive: 86%"}
{"smiles": "O=C1C2C3C=CC(C3)C2C(=O)N1C1CC2CCC1C2", "note": "(stereo unspecified)", "survival": "inactive: 73%"}
{"smiles": "COc1ccc(C(=O)NCCn2cc(SCC(=O)Nc3cccc(C)c3)c3ccccc32)cc1", "survival": "inactive: 60%"}
{"smiles": "CCOCCCNC(=O)NC(C)c1c(-n2cccc2)sc2c1CCN(CC)C2", "note": "(stereo unspecified)", "survival": "inactive: 119%"}
{"smiles": "CCc1nnc(NC(=O)CCC(=O)N2CC3(C)CC2CC(C)(C)C3)s1", "note": "(stereo unspecified)", "survival": "inactive: 106%"}
{"smiles": "COc1ccc(OC)c(S(=O)(=O)N2CCC(c3ccncc3)CC2)c1", "survival": "inactive: 122%"}
{"smiles": "CCc1ccc(-n2c(SCc3ccccc3F)nc3[nH]ncc3c2=O)cc1", "survival": "inactive: 86%"}
{"smiles": "O=C(CCc1nc(CN2CCN(S(=O)(=O)c3ccc(F)cc3)CC2)no1)N1CCCCC1", "survival": "inactive: 94%"}
{"smiles": "CCc1ccc(C(=O)c2cn(CC(=O)NCCc3ccc(OC)c(OC)c3)c3nc(C)ccc3c2=O)cc1", "survival": "inactive: 81%"}
{"smiles": "COc1cccc(NC(=O)CSC2=Nc3ccccc3N=C(c3ccc(F)cc3)C2)c1", "survival": "inactive: 92%"}
{"smiles": "O=C(c1ccc2c(c1)N(Cc1ccccc1F)C(=O)c1ccccc1S2(=O)=O)N1CCCCC1", "survival": "inactive: 87%"}
{"smiles": "Cc1ccc(CNC(=O)CCCCn2c(=O)c3ccccc3n(Cc3c(C)cc(C)cc3C)c2=O)cc1", "survival": "inactive: 68%"}
{"smiles": "COc1cccc(NC(=O)CSC2=Nc3ccccc3C3=NC(CC(=O)NCCc4ccccc4)C(=O)N23)c1", "note": "(stereo unspecified)", "survival": "inactive: 107%"}
{"smiles": "COc1ccccc1N1CCN(C(=O)Cn2ncc3c([nH]c4ccccc43)c2=O)CC1", "survival": "inactive: 101%"}
{"smiles": "NC(=O)Nn1c(CCC(=O)O)ccc1-c1ccc(Cl)cc1", "survival": "inactive: 99%"}
{"smiles": "Cc1ccc(C2C=C(c3ccc(Cl)cc3)Nc3nc(NS(=O)(=O)c4ccccc4)nn32)cc1", "note": "(stereo unspecified)", "survival": "inactive: 62%"}
{"smiles": "CCN1CCN(C(=O)c2cnn(-c3ccc(F)cc3)c2-n2cccc2)CC1", "survival": "inactive: 135%"}
{"smiles": "O=C(CCC1N=C2c3ccccc3N=C(SCC(=O)Nc3ccccc3F)N2C1=O)NCc1ccccc1", "note": "(stereo unspecified)", "survival": "inactive: 81%"}
{"smiles": "O=c1nc2sc3ccccc3n2c(=O)n1-c1ccc(Cl)c(Cl)c1", "survival": "active: 22%"}
{"smiles": "O=C1c2[nH]nc(-c3ccccc3O)c2C(c2ccc(Cl)cc2)N1Cc1ccco1", "note": "(stereo unspecified)", "survival": "active: -1%"}
{"smiles": "Cc1ccc2nc(N3CCN(Cc4nnnn4Cc4ccccc4)CC3)c(C#N)cc2c1", "survival": "inactive: 54%"}
{"smiles": "COc1ccc2nc(Cl)c(CN(Cc3ccc(F)cc3)C(=O)c3ccco3)cc2c1", "survival": "inactive: 81%"}
{"smiles": "Cc1ccc(NC(=O)CC(C)S(=O)(=O)c2ccc3c(c2)NC(=O)CO3)c(C)c1", "note": "(stereo unspecified)", "survival": "inactive: 78%"}
{"smiles": "COc1cc(-c2ccno2)ccc1S(=O)(=O)N1CCN(c2cc(C)ccc2C)CC1", "survival": "inactive: 79%"}
{"smiles": "COCC(=O)Oc1c(Sc2ccc(C)cc2)c(C)nn1C(C)(C)C", "survival": "inactive: 78%"}
{"smiles": "COc1cccc(N2CC(NC(=O)C(c3ccccc3)c3ccccc3)CC2=O)c1", "note": "(stereo unspecified)", "survival": "inactive: 57%"}
{"smiles": "Cc1cc(C)cc(Oc2nc3c(C)cccn3c(=O)c2/C=C(\\C#N)c2nc3ccccc3[nH]2)c1", "survival": "inactive: 72%"}
{"smiles": "CC(C)c1ccc(S(=O)(=O)c2nnn3c2nc(NCCc2ccccc2)c2sccc23)cc1", "survival": "inactive: 47%"}
{"smiles": "CC(CCc1ccccc1)NC(=O)Cn1ncc2c3ccccc3n(Cc3ccc(F)cc3)c2c1=O", "note": "(stereo unspecified)", "survival": "inactive: 90%"}
{"smiles": "CCCn1c(=O)c2sccc2n2c(CCCC(=O)NCCc3ccc(Cl)cc3)nnc12", "survival": "inactive: 93%"}
{"smiles": "Cc1ccc(CNC(=O)c2cc3sccc3n2Cc2ccc(Cl)cc2)cc1", "survival": "inactive: 86%"}
{"smiles": "CC(C)NC(=O)C1CCN(C(=O)NCc2ccccc2)CC1", "survival": "inactive: 93%"}
{"smiles": "O=C(NCc1ccc(F)cc1)c1ccc(CSCc2cccc(Cl)c2)o1", "survival": "inactive: 65%"}
{"smiles": "COCCNC(=O)Cc1ccc(NC(=O)N2CCCCc3ccccc32)cc1", "survival": "inactive: 112%"}
{"smiles": "Cn1cc(CN(C(=O)Nc2ccc(Cl)c(Cl)c2)C2CCCCC2)c2ccccc21", "survival": "inactive: 51%"}
{"smiles": "COCCNC(=O)c1cnn(-c2ccc(C)cc2C)c1C1CCN(C(=O)OC(C)(C)C)CC1", "survival": "inactive: 83%"}
{"smiles": "COc1ccc(-n2c(/C=C/c3ccccc3F)nc3cc(OC)c(OC)cc3c2=O)cc1Cl", "survival": "inactive: 94%"}
{"smiles": "Cc1ccccc1Cn1c(C(=O)O)c(CNCc2cccc(F)c2)c2ccccc21", "survival": "active: 52%"}
{"smiles": "O=C1c2ccccc2C(=O)C1(c1ccccc1)N1CCN(c2cccc(Cl)c2)CC1", "survival": "inactive: 114%"}
{"smiles": "Cc1ccc(N2CC(NC(=O)/C=C\\c3ccc4c(c3)OCO4)CC2=O)cc1C", "note": "(stereo unspecified)", "survival": "inactive: 124%"}
{"smiles": "Cc1ccc(-c2cc(C(F)(F)F)n3nc(C(=O)Nc4ccc(Cl)cc4Cl)cc3n2)cc1", "survival": "inactive: 81%"}
{"smiles": "CCN(CC)C(=O)C1CCN(S(=O)(=O)c2ccc3c(c2)CCCN3C(C)=O)CC1", "survival": "inactive: 124%"}
{"smiles": "Cc1ccc(NC(=O)CSc2ncc3c(n2)-c2ccccc2N(Cc2cccc(F)c2)S3(=O)=O)cc1F", "survival": "inactive: 81%"}
{"smiles": "Cc1nc2nncn2c(N2CCN(c3ccccc3)CC2)c1C", "survival": "inactive: 83%"}
{"smiles": "COc1ccccc1/C=C/c1nc(C#N)c(N2CCCCC2)o1", "survival": "inactive: 75%"}
{"smiles": "Cc1ccc2nc(-c3ccsc3)c(Nc3ccccc3C)n2c1", "survival": "inactive: 55%"}
{"smiles": "COc1ccc(-n2nc3ccc(NC(=O)c4ccc(-c5cc(Cl)ccc5Cl)o4)cc3n2)cc1", "survival": "active: 40%"}
{"smiles": "COc1ccc(-n2ccnc(NCc3ccc(Cl)cc3)c2=O)cc1", "survival": "active: 8%"}
